Over roughly 110,000 compounds, “z-score” has its median near -0.1; the highest 2% begin near 2. This is one part of the list. Activity calls are given as the source filed them.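 The calls were made as follows: active = z-score in the third read window above 3 or below -3; inactive = the rest.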

This test concerns the target Metabotropic glutamate receptor 8 (Rattus norvegicus) (UniProt P70579). Kind of test: mGluR8 Gi/Go-coupled signaling modulation – cell-based, rat, thallium flux, HTS, primary screen (AID 488969). The conditions noted are these: HEK293 rat mGluR8, GIRK (G protein-gated inwardly rectifying potassium channel) thallium flux, FluoZin2; at 10 µM; stronger effect = higher value; submaximal glutamate (EC20) added with thallium.
Chain of UniProt P70579 (P70579 whole entry, looked up): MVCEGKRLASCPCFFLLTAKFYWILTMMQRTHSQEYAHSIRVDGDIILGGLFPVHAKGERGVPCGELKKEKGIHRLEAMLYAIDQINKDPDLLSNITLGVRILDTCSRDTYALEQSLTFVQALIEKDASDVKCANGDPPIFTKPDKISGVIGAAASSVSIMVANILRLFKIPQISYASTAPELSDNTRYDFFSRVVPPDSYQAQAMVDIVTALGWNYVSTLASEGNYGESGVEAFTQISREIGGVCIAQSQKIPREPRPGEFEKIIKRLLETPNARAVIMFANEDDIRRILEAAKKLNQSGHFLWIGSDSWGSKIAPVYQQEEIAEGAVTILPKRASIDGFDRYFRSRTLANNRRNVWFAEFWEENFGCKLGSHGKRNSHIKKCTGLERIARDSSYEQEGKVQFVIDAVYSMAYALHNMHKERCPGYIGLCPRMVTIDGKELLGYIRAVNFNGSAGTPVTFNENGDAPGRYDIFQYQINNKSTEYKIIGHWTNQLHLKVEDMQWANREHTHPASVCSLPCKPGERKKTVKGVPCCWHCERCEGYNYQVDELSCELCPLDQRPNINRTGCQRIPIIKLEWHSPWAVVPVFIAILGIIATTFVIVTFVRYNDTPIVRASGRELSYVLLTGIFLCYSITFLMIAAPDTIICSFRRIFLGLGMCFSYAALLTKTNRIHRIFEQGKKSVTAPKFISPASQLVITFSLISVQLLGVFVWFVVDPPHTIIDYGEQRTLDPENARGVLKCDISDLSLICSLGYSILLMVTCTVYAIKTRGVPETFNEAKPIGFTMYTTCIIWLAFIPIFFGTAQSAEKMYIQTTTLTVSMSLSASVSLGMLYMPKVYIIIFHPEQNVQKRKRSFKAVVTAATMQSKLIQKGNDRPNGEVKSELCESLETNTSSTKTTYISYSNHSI
Molecule `CCN(CC)c1ccc(NC(=O)C2CCCN(S(=O)(=O)c3cnc[nH]3)C2)c(C)c1` (centres undefined) registered a z-score of 1.1.

In the case of `COc1ccc(C)cc1NC(=O)Nc1ccccc1`, the z-score was active: 11.5.

Molecule `CCOc1ccccc1NC(=S)/C(=C(\[O-])c1ccc2c(c1)OCCO2)[n+]1ccc(CC)cc1` returned a z-score of -0.291.

The molecule `O=C(N/N=C/c1ccc([N+](=O)[O-])o1)c1cc(-c2ccncc2)nc2ccccc12` displayed a z-score of -0.212.

Regarding `COC(=O)C1CCN(C(=O)c2ccc(SC)cc2OC)CC1`, the z-score came to 0.216.

In the case of `O=C(NNC(=O)c1ccco1)c1cccc([N+](=O)[O-])c1`, the z-score is -0.222.

`CCOC(=O)N1CCC(NCCNC(=O)c2ccccc2Cl)CC1` displayed a z-score of -0.00637.

In turn, `CC1CC(N(C(=O)c2ccco2)c2ccccc2)c2ccccc2N1C(=O)c1ccco1` (centres undefined) returned a z-score of -1.07.

For the molecule `COC(=O)c1cc(Br)c(=O)n(-c2ccccn2)c1`, the z-score was 0.856.

In turn, `CCCN(CCC)S(=O)(=O)c1cccc(C(=O)Nc2ccc3c(c2)OCO3)c1` had a z-score of -0.129.

As for `COc1[nH]c(/N=C/c2ccccc2)c(C#N)c1C#N`, the z-score was -0.526.

With `Cc1cccc(N2CCN(C(=S)c3ccc(-c4ccccc4[N+](=O)[O-])o3)CC2)c1`, the z-score is -0.333.

`O=C1c2ccccc2C(=O)N1CCCON1C(=O)c2ccccc2C1=O`: the z-score worked out at 0.703.

In turn, `CCOC(=O)C(C)On1c(-c2ccc(Cl)cc2)nc2ccc([N+](=O)[O-])cc21` (centres undefined) gave a z-score of -1.56.

`Cc1ccc(S(=O)(=O)CCC(=O)OCc2ccc(Cl)c(Cl)c2)cc1` showed a z-score of -0.149.

As for `O=C(c1ccccc1)C1C(=O)c2ccccc2C1=O`, the z-score is -0.319.

With `COc1ccc(-n2c(CNC(=O)c3ccc(S(=O)(=O)N4CCCC4)cc3)n[nH]c2=S)cc1`, the z-score was -0.254.

As to `Cc1oc2c(c1C(=O)c1ccccc1)C(=O)C(=O)c1ccccc1-2`, the z-score is -0.17.

`CCC(C)NC(=O)C(NS(=O)(=O)c1ccc2c(c1)c(=O)n(C)c(=O)n2C)c1ccccc1` (centres undefined) gave a z-score of -0.209.

The molecule `COc1ccc(CN2C(=O)CCC2(C)C(=O)NCc2cccnc2)c(OC)c1` (centres undefined) displayed a z-score of -0.182.

`CCOC(=O)c1cc(N)cc([N+](=O)[O-])c1`: the z-score amounted to 0.152.

`N#CC1=C(N)N2C(=C(C#N)C13CCN(Cc1ccccc1)CC3)Nc1ccccc12`: the z-score is -0.978.

As to `O=c1c2cnn(-c3ccccc3)c2ncn1Cc1ccco1`, the z-score is -0.516.

As to `CCn1nc2cc(C(=O)NCc3cc(C(F)(F)F)cc(C(F)(F)F)c3)ccc2c1OC`, the z-score was -0.177.

Turning to `CN(C)C(CNS(=O)(=O)c1ccc(F)cc1)c1cccnc1` (centres undefined), the z-score was -0.0944.

Consider `C=CCn1c(SCC(=O)NCc2ccccc2)nnc1-c1cc(Br)ccc1O`, for which the z-score was -2.09.

As to `CCN(CC)c1ccc(C(=O)OCC(=O)NC2CCCCC2C)cc1` (centres undefined), the z-score is -0.113.

Regarding `Cc1ccc(/C(N)=N/OC(=O)c2ccc(Cl)cc2Cl)cc1`, the z-score was -0.0741.

In turn, `CCOc1ccc2nc(C(C)O)[nH]c2c1` (centres undefined) had a z-score of 0.172.

Consider `O=C(c1cnccn1)N1CCN(C/C=C/c2ccccc2)CC1`, for which the z-score is 0.432.

For `Cc1cccc(-n2c(O)c(C=Nc3ccccc3N)c(=O)[nH]c2=O)c1`, the z-score was -0.0327.

In the case of `CN1CCN(c2ccccc2NC(=O)C(Cc2ccccc2)n2cccc2)CC1` (centres undefined), the z-score is -1.65.

`CC1=CCC2C(=O)N(c3ccc(C)c(Br)c3)C(=O)C2C1` (centres undefined) gave a z-score of 0.804.

As for `Cc1ccc(-n2nnnc2SC(C)C(=O)NCC(=O)Nc2ccc(F)c(F)c2F)c(C)c1` (centres undefined), the z-score was -0.287.

On to `O=C(CSCC(=O)OCC(=O)c1ccc(Br)cc1)Nc1cccc2ccccc12`, for which the z-score is -0.251.

In turn, `CCCCN1C(=O)c2ccc(C(=O)NC3=NCCS3)cc2C1=O` returned a z-score of -0.236.

Turning to `Cc1ccccc1NC(=O)C(C)O/N=C/c1cccc([N+](=O)[O-])c1` (centres undefined), the z-score is -0.426.

Consider `O=C(CSc1nnc(CNC(=O)c2ccccc2F)o1)NCCc1ccccc1`, for which the z-score was -0.163.

`CCOC(=O)C(Oc1ccc(=O)[nH]n1)C(C)=O` (centres undefined) showed a z-score of -0.00949.

On to `COC(=O)c1ccc(C)c(NC(=O)CCc2cc(OC)c(OC)c(OC)c2)c1`, for which the z-score is -0.0799.

`Cc1ccccc1NCCNc1ccccc1C` returned a z-score of -0.531.

With `CCOC(=O)/C(=C/c1c[nH]c2ccccc12)NC(C)=O`, the z-score is -0.229.

The molecule `Cc1ccc(C(=O)CCC(=O)Nc2cccc(C(F)(F)F)c2)cc1` showed a z-score of 1.26.

On to `Cc1cc(N2CCOCC2)n2ncc(-c3ccccc3)c2n1`, for which the z-score was -0.401.

In turn, `CCOC(=O)c1ccc(NC(=O)CN2C(=O)CNC2=O)cc1` returned a z-score of -0.263.

On to `CCOc1ccccc1N(CC(=O)OC)S(C)(=O)=O`, for which the z-score was -0.0628.

For `Nn1c(SCC(=O)Nc2ccc3c(c2)OCO3)nnc1-c1cccc(Cl)c1`, the z-score was -0.0648.

`Cc1nn(-c2ccc(Cl)cc2)c2sc(C(=O)N3CCN(c4ccccn4)CC3)cc12` yielded a z-score of 0.648.

`CCOc1cc(NC2CS(=O)(=O)CC2O)c(OCC)cc1NC(=O)c1ccccc1` (centres undefined): the z-score is -0.294.

`CC(C)CCNC(=O)CN(C(=O)CCC(=O)Nc1ccccn1)c1ccc2c(c1)OCCO2` came in with a z-score of -0.262.

As for `CCOc1ccc(CN(C)CC(=O)Nc2ccc([N+](=O)[O-])cc2Cl)cc1`, the z-score came out at 0.327.

In turn, `Cc1ccc(C(=O)c2cnc3ccccc3c2-c2ccccc2)cc1` yielded a z-score of -1.64.

`COc1cc(-c2noc(-c3cccs3)n2)cc(OC)c1OC` gave a z-score of -0.391.

`CC1(C)CC(N2CCN(c3ccccc3)CC2)=CC(=[N+]2CCCC2)C1`: the z-score is 0.22.

Molecule `C/C(=C\C(=O)c1ccccc1)Nc1ccc(O)cc1` came in with a z-score of -0.205.

On to `O=C(CCC1CCCCC1)NCc1ccc(F)cc1`, for which the z-score is -0.221.

In turn, `Cc1cc2[nH]ncc2cc1NC(=S)NC(=O)c1ccccc1` registered a z-score of 0.0234.

Regarding `CC(=O)Nc1ccc2oc(-c3cc(F)c(F)cc3Cl)nc2c1`, the z-score worked out at 0.102.

On to `C=C(C)CNC(=S)N/N=C(\C)c1ccc(Cl)s1`, for which the z-score is 2.26.

Regarding `CCOC(=O)c1c(-c2ccccc2)csc1NC(=O)c1cc2ccccc2oc1=O`, the z-score was found to be 0.0962.

In turn, `CCC(C)c1ccc(NC(=O)CC(C)=O)cc1` (centres undefined) displayed a z-score of 1.44.

`CCOC(=O)c1cnn(-c2ccc(C(C)C)cc2)c1NC(=O)C1CCC1` had a z-score of -0.188.

Take `CC12CCC(C(=O)N(NC(=O)c3cccnc3)C1=O)C2(C)C` (centres undefined): the z-score was -0.471.

As to `COc1ccc(NS(=O)(=O)c2cc(NC(=O)c3cccc(OCc4c(C)noc4C)c3)ccc2OC)cc1`, the z-score is -1.32.

For the molecule `CCCCOc1ccc(C(=O)N/C(=C/C=C/c2ccccc2)C(=O)N2CCOCC2)cc1`, the z-score was -0.206.

Molecule `Fc1ccc(NCc2cccnc2)cc1F` showed a z-score of -0.0239.

Regarding `COc1ccc(/C=C/c2nnc(NC(=O)COc3ccc(C)cc3)s2)cc1`, the z-score was -0.128.

`CCC(C)NC(=O)c1cc(C)no1` (centres undefined): the z-score turned out to be 0.285.

On to `Oc1ccc(/C=N/n2cnn(Cc3ccccc3Cl)c2=S)c(O)c1`, for which the z-score was -1.11.

In the case of `C=CCSc1nnc(NC(=O)c2ccc(S(=O)(=O)NCC3CCCO3)cc2)s1` (centres undefined), the z-score is -0.169.

The molecule `O=C(CN1CCOCC1)N1CCCc2c1c(=O)oc1ccc(OCc3ccccc3)cc21` registered a z-score of -0.517.

`Cc1ccc(C(=O)NCCc2ccncc2)cc1` showed a z-score of -0.0518.

In turn, `CCCCn1c(N)c(NCCC(C)C)c(=O)[nH]c1=O` gave a z-score of 0.0663.

Turning to `COc1ccc(OC)c(N/C=C2/CCCCC2=O)c1`, the z-score was -0.0928.

`Cc1ccc(NC(=O)c2ccc(CNS(=O)(=O)c3cccc(C(F)(F)F)c3)cc2)cc1` had a z-score of -0.0681.

In turn, `COc1cc2[nH]c(=S)nc(NCCCOC(C)C)c2cc1OC` displayed a z-score of 0.257.

As for `O=C(COc1ccc(S(=O)(=O)N2CCOCC2)cc1)Nc1ccc(Cl)c(C(F)(F)F)c1`, the z-score came out at 0.835.

As to `COc1ccc(C(=O)N/C(N)=N/c2nc3ccccc3o2)cc1`, the z-score is -0.11.

Turning to `Cc1cccc(-n2c(SCC(=O)N3CCCC3)nc3n[nH]c(C)c3c2=N)c1`, the z-score is -0.237.

In turn, `COC(=O)c1ccc(CSc2nnc(-c3ccc4c(c3)OCO4)n2-c2ccccc2)o1` returned a z-score of -1.21.

With `CNc1oc(-c2ccc(Cl)cc2)nc1P(=O)(c1ccccc1)c1ccccc1`, the z-score is -0.258.

`CC(=O)NC(C)c1nc2ccccc2n1C(C)C` (centres undefined) had a z-score of -0.00659.

`CC(C)CN(C(=O)CSc1nnc2ccccn12)c1c(N)n(CC(C)C)c(=O)[nH]c1=O` had a z-score of -0.775.

`C=C(C)Cn1c(C)cc(C)c(S(=O)(=O)c2ccccc2C)c1=O` showed a z-score of -0.371.

`O=C(CCc1nc2ccccc2c(=O)[nH]1)OCC(=O)N1CCN(S(=O)(=O)c2ccccc2)CC1`: the z-score was found to be 0.865.

`COc1ccccc1N1CCN(C(=O)Nc2cccc(Cl)c2)CC1` yielded a z-score of -0.123.

With `Cc1noc(C)c1CSc1nc2ccccc2c(=O)n1-c1ccc(Cl)cc1`, the z-score is -0.312.

On to `CCOC(=O)c1cnn(-c2ccccn2)c1N`, for which the z-score was -0.885.

Turning to `CCOc1cc(/C=C\c2[nH]c(=O)[nH]c(=O)c2[N+](=O)[O-])ccc1OC(C)CC` (centres undefined), the z-score was -0.322.

In turn, `CCOc1ccc(CCNC(=O)C2CCN(c3nnc(-n4cccc4)s3)CC2)cc1OCC` yielded a z-score of -1.57.

Take `Cc1ccc(C)c(Oc2coc3cc(OC(=O)c4cccs4)ccc3c2=O)c1`: the z-score is -0.0966.

The molecule `O=C(O)c1ccc(CNCc2cccc(Cl)c2Cl)cc1` came in with a z-score of -0.207.

`COc1ccc(Cc2nc(C(=O)Nc3ccc(F)cc3)cs2)cc1` had a z-score of -0.279.

On to `Cc1ccc(Cn2c(N)c(S(=O)(=O)c3cccs3)c3nc4ccccc4nc32)cc1`, for which the z-score is -0.1.

Consider `O=C(CN(C1CCCCC1)S(=O)(=O)c1ccc(F)cc1)NC1CC1`, for which the z-score was -0.118.

As for `Clc1ccc(OCCSc2ncccn2)cc1`, the z-score is -0.0238.

For `O=C(CN(Cc1ccco1)C(=O)c1ccccc1)Nc1ccc(Cl)c(Cl)c1`, the z-score was -0.0573.

For the molecule `N#Cc1nc(COc2cccc(Cl)c2)oc1NCc1ccco1`, the z-score was -0.533.

Take `Cc1ccc(-n2nc(C(=O)O)cc2-c2ccccc2)cc1`: the z-score was -1.98.

As for `CCn1cc(Br)c(C(=O)N(C)Cc2ccccc2)n1`, the z-score came to 0.274.

As for `CCO/C=C1/C(=O)N(C)C(=O)c2cc(OC)ccc21`, the z-score was -0.509.

The molecule `COc1cc2c(C(=O)N3CCN(c4ccccc4)CC3)c(C)oc2cc1Br` yielded a z-score of -1.19.

As to `O=C(/C=C/c1ccccc1)N/C(=C\c1ccco1)C(=O)NCCO`, the z-score was -0.177.

In turn, `CCOC(=O)c1c(C)[nH]c(N=Nc2ccc(C)cc2C)c1C` displayed a z-score of 0.245.

Consider `O=C(/C=C/c1ccc(-c2ccccc2[N+](=O)[O-])o1)c1ccc(Br)cc1`, for which the z-score is -0.124.

For the molecule `COc1ccc(-n2c(C)cc(C(=O)Cn3nnc4ccccc4c3=O)c2C)cc1`, the z-score was -0.0888.

As for `CN(CC(=O)NCc1ccccn1)S(=O)(=O)c1ccccc1`, the z-score was -0.487.

With `CC1(C)Cc2cccc(OCC(=O)N3CCN(S(=O)(=O)c4ccc(F)cc4)CC3)c2O1`, the z-score came to 0.167.

On to `CN1C2=NCCN2C(=O)c2ccccc21`, for which the z-score is -0.163.

The record behind these values is PubChem BioAssay AID488969 (Vanderbilt High Throughput Screening Facility, 2010).
